# This is one part of the list.
# Key:
# Assay in all cases: glycan array binding signal (z-score within array); higher = stronger binding
# Details in all cases: glycan notation: IUPAC condensed, linker removed
# [1] = molecular target: Gal(b1-4)GlcNAc(b1-3)Gal(b1-4)Glc
# How it was run: (§1)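 Glycan array data came from 3228 arrays in the Consortium for Functional Glycomics database, and only arrays with an available protein sequence were kept. Glycan names were put into IUPAC-condensed notation, and columns mapping to the same glycan were averaged. The binding signal is a within-array Z-score, averaged across arrays of one protein sequence run at different concentrations or buffers and across linkers. A negative Z-score can be read as non-binding.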
# [2] = molecular target: Gal(b1-4)GlcNAc(b1-3)Gal(b1-4)GlcNAc
# How it was run: as §1
# [3] = molecular target: Gal(b1-4)GlcNAc(b1-3)Gal(b1-4)GlcNAc(b1-2)Man(a1-3)[Gal(b1-4)GlcNAc(b1-3)Gal(b1-4)GlcNAc(b1-2)Man(a1-6)]Man(b1-4)GlcNAc(b1-4)GlcNAc
# How it was run: as §1
# [4] = molecular target: Gal(b1-4)GlcNAc(b1-3)Gal(b1-4)GlcNAc(b1-2)Man(a1-3)[Gal(b1-4)GlcNAc(b1-3)Gal(b1-4)GlcNAc(b1-2)Man(a1-6)]Man(b1-4)GlcNAc(b1-4)[Fuc(a1-6)]GlcNAc
# How it was run: as §1
# [5] = molecular target: Gal(b1-4)GlcNAc(b1-3)Gal(b1-4)GlcNAc(b1-2)[Gal(b1-4)GlcNAc(b1-3)Gal(b1-4)GlcNAc(b1-6)]Man(a1-6)[Gal(b1-4)GlcNAc(b1-3)Gal(b1-4)GlcNAc(b1-2)Man(a1-3)]Man(b1-4)GlcNAc(b1-4)GlcNAc
# How it was run: as §1
# [6] = molecular target: Gal(b1-4)GlcNAc(b1-3)Gal(b1-4)GlcNAc(b1-2)[Gal(b1-4)GlcNAc(b1-3)Gal(b1-4)GlcNAc(b1-6)]Man(a1-6)[Gal(b1-4)GlcNAc(b1-3)Gal(b1-4)GlcNAc(b1-2)Man(a1-3)]Man(b1-4)GlcNAc(b1-4)[Fuc(a1-6)]GlcNAc
# How it was run: as §1
# [7] = molecular target: Gal(b1-4)GlcNAc(b1-3)Gal(b1-4)GlcNAc(b1-3)Gal(b1-4)GlcNAc
# How it was run: as §1
# [8] = molecular target: Gal(b1-4)GlcNAc(b1-3)Gal(b1-4)GlcNAc(b1-3)Gal(b1-4)GlcNAc(b1-2)Man(a1-3)[Gal(b1-4)GlcNAc(b1-3)Gal(b1-4)GlcNAc(b1-3)Gal(b1-4)GlcNAc(b1-2)Man(a1-6)]Man(b1-4)GlcNAc(b1-4)GlcNAc
# How it was run: as §1
# [9] = molecular target: Gal(b1-4)GlcNAc(b1-3)Gal(b1-4)GlcNAc(b1-3)Gal(b1-4)GlcNAc(b1-2)Man(a1-3)[Gal(b1-4)GlcNAc(b1-3)Gal(b1-4)GlcNAc(b1-3)Gal(b1-4)GlcNAc(b1-2)Man(a1-6)]Man(b1-4)GlcNAc(b1-4)[Fuc(a1-6)]GlcNAc
# How it was run: as §1
# [10] = molecular target: Gal(b1-4)GlcNAc(b1-3)Gal(b1-4)GlcNAc(b1-3)Gal(b1-4)GlcNAc(b1-2)[Gal(b1-4)GlcNAc(b1-3)Gal(b1-4)GlcNAc(b1-3)Gal(b1-4)GlcNAc(b1-6)]Man(a1-6)[Gal(b1-4)GlcNAc(b1-3)Gal(b1-4)GlcNAc(b1-3)Gal(b1-4)GlcNAc(b1-2)Man(a1-3)]Man(b1-4)GlcNAc(b1-4)[Fuc(a1-6)]GlcNAc
# How it was run: as §1
# [11] = molecular target: Gal(b1-4)GlcNAc(b1-3)Gal(b1-4)GlcNAc(b1-3)Gal(b1-4)GlcNAc(b1-3)Gal(b1-4)GlcNAc(b1-2)Man(a1-3)[Gal(b1-4)GlcNAc(b1-3)Gal(b1-4)GlcNAc(b1-3)Gal(b1-4)GlcNAc(b1-3)Gal(b1-4)GlcNAc(b1-2)Man(a1-6)]Man(b1-4)GlcNAc(b1-4)GlcNAc
# How it was run: as §1
# [12] = molecular target: Gal(b1-4)GlcNAc(b1-3)Gal(b1-4)GlcNAc(b1-3)Gal(b1-4)GlcNAc(b1-3)Gal(b1-4)GlcNAc(b1-2)Man(a1-3)[Gal(b1-4)GlcNAc(b1-3)Gal(b1-4)GlcNAc(b1-3)Gal(b1-4)GlcNAc(b1-3)Gal(b1-4)GlcNAc(b1-2)Man(a1-6)]Man(b1-4)GlcNAc(b1-4)[Fuc(a1-6)]GlcNAc
# How it was run: as §1
# [13] = molecular target: Gal(b1-4)GlcNAc(b1-3)Gal(b1-4)GlcNAc(b1-3)Gal(b1-4)GlcNAc(b1-3)Gal(b1-4)GlcNAc(b1-2)[Gal(b1-4)GlcNAc(b1-3)Gal(b1-4)GlcNAc(b1-3)Gal(b1-4)GlcNAc(b1-3)Gal(b1-4)GlcNAc(b1-6)]Man(a1-6)[Gal(b1-4)GlcNAc(b1-3)Gal(b1-4)GlcNAc(b1-3)Gal(b1-4)GlcNAc(b1-3)Gal(b1-4)GlcNAc(b1-2)Man(a1-3)]Man(b1-4)GlcNAc(b1-4)[Fuc(a1-6)]GlcNAc
# How it was run: as §1
# [14] = molecular target: Gal(b1-4)GlcNAc(b1-3)Gal(b1-4)GlcNAc(b1-3)Gal(b1-4)GlcNAc(b1-3)Gal(b1-4)GlcNAc(b1-3)Gal(b1-4)GlcNAc(b1-2)Man(a1-3)[Gal(b1-4)GlcNAc(b1-3)Gal(b1-4)GlcNAc(b1-3)Gal(b1-4)GlcNAc(b1-3)Gal(b1-4)GlcNAc(b1-3)Gal(b1-4)GlcNAc(b1-2)Man(a1-6)]Man(b1-4)GlcNAc(b1-4)GlcNAc
# How it was run: as §1
# [15] = molecular target: Gal(b1-4)GlcNAc(b1-3)Gal(b1-4)GlcNAc(b1-3)Gal(b1-4)GlcNAc(b1-3)Gal(b1-4)GlcNAc(b1-3)Gal(b1-4)GlcNAc(b1-2)Man(a1-3)[Gal(b1-4)GlcNAc(b1-3)Gal(b1-4)GlcNAc(b1-3)Gal(b1-4)GlcNAc(b1-3)Gal(b1-4)GlcNAc(b1-3)Gal(b1-4)GlcNAc(b1-2)Man(a1-6)]Man(b1-4)GlcNAc(b1-4)[Fuc(a1-6)]GlcNAc
# How it was run: as §1
# [16] = molecular target: Gal(b1-4)GlcNAc(b1-3)Gal(b1-4)GlcNAc(b1-3)Gal(b1-4)GlcNAc(b1-3)Gal(b1-4)GlcNAc(b1-3)Gal(b1-4)GlcNAc(b1-2)[Gal(b1-4)GlcNAc(b1-3)Gal(b1-4)GlcNAc(b1-3)Gal(b1-4)GlcNAc(b1-3)Gal(b1-4)GlcNAc(b1-3)Gal(b1-4)GlcNAc(b1-6)]Man(a1-6)[Gal(b1-4)GlcNAc(b1-3)Gal(b1-4)GlcNAc(b1-3)Gal(b1-4)GlcNAc(b1-3)Gal(b1-4)GlcNAc(b1-3)Gal(b1-4)GlcNAc(b1-2)Man(a1-3)]Man(b1-4)GlcNAc(b1-4)[Fuc(a1-6)]GlcNAc
# How it was run: as §1
# [17] = molecular target: Gal(b1-4)GlcNAc(b1-3)Gal(b1-4)GlcNAc(b1-3)Gal(b1-4)GlcNAc(b1-3)Gal(b1-4)GlcNAc(b1-3)Gal(b1-4)GlcNAc(b1-3)Gal(b1-4)GlcNAc(b1-2)Man(a1-3)[Gal(b1-4)GlcNAc(b1-3)Gal(b1-4)GlcNAc(b1-3)Gal(b1-4)GlcNAc(b1-3)Gal(b1-4)GlcNAc(b1-3)Gal(b1-4)GlcNAc(b1-3)Gal(b1-4)GlcNAc(b1-2)Man(a1-6)]Man(b1-4)GlcNAc(b1-4)GlcNAc
# How it was run: as §1
# [18] = molecular target: Gal(b1-4)GlcNAc(b1-3)Gal(b1-4)GlcNAc(b1-3)GalNAc
# How it was run: as §1
# [19] = molecular target: Gal(b1-4)GlcNAc(b1-3)Gal(b1-4)GlcNAc(b1-3)[Gal(b1-4)GlcNAc(b1-3)Gal(b1-4)GlcNAc(b1-6)]GalNAc
# How it was run: as §1
binder,measurement,setting,value
B160 (Bifidobacterium sp) (protein) MVSHNKRIVAALAAVAAMGIGLAGCGGSDTAGDTKSGSDGGVVNITYMHRLPDSEGMTLVNDIVAKWNKEHPNIQVKATKFDGNAADMIKKLETDVKAGNAPDLAQVGYAEVPEVFTKGLLQDVTDEAAKYKDDFASGPFALMQVDGKTYGLPQDTGPLTYFYNAAEFEKLGITVPKTADELIETAKKTAAQGKYIMTFTPDEAMMMMSGQAGASGPWYKVDGNSWVVNTQTKGSKAVADVYQQLIDNKAALTNPRWDASFDNSIQSGQLIGTVAAAWEAPLFIDSAGGTGAGEWKVTQLGDWFGNGTKTGANGGSGVAVLKGSKHPAEAMEFLDWFNTQVDDLVSQGLVVAATTADAKTPQKWSDYFSGQDVMAEFKTANDNMGDFTYMPGFSAVGAAMKQTAAKAADGSAKVSDVFDTAQKTSVDTLKNLGLSVKE,glycan array binding signal (z-score),[1],1.79
same,glycan array binding signal (z-score),[2],-0.167
same,glycan array binding signal (z-score),[3],-0.14
same,glycan array binding signal (z-score),[4],-0.09
same,glycan array binding signal (z-score),[5],-0.145
same,glycan array binding signal (z-score),[6],-0.109
same,glycan array binding signal (z-score),[7],0.032
same,glycan array binding signal (z-score),[8],-0.068
same,glycan array binding signal (z-score),[9],-0.069
same,glycan array binding signal (z-score),[10],-0.017
same,glycan array binding signal (z-score),[11],0.04
same,glycan array binding signal (z-score),[12],-0.032
same,glycan array binding signal (z-score),[13],0.086
same,glycan array binding signal (z-score),[14],0.049
same,glycan array binding signal (z-score),[15],0.002
same,glycan array binding signal (z-score),[16],0.38
same,glycan array binding signal (z-score),[17],-0.067
same,glycan array binding signal (z-score),[18],-0.143
same,glycan array binding signal (z-score),[19],-0.14
